Measurements from PubChem BioAssay AID493208 (National Center for Advancing Translational Sciences (NCATS), 2011).
About 340 (0.77%) of roughly 44,000 compounds were called active. Another 5% or so got no clear call; they are omitted. The call rests on the fitted dose curve; in most records, active means well fitted inhibition curve with a large enough effect; inconclusive means small, poorly fitted or top-dose-only effect; inactive means flat fitted curve, though single readings scatter. Some of the results follow.

Assay: Acumen qHTS Assay for Inhibitors of the mTORC1 Signaling Pathway in MEF (Tsc2-/-, p53-/-) Cells: Sytravon;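 further: plate controls were DMSO for no effect and rapamycin for full effect; nearly all actives have a fitted effect of over 50% in size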
Details: phospho-rpS6 immunofluorescence/PI, 24 h; series mostly up to 38.3 µM; activity change, negative = inhibition: at the top concentration
Summary of the method: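 Readout is phospho-S6 Alexa 488 signal normalized to PI per well, reported as % active cells with thresholds set from rapamycin (7.5 nM) and DMSO controls. Cells: Tsc2-/-, p53-/- MEFs, 24 hrs compound at 37 C; PI cell number serves as viability.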

Activity change, negative = inhibition, inactive:
CC(=O)c1cccc(NC(=O)CCn2nc(C)c(S(=O)(=O)N(C)C)c2C)c1 0%
CC(C)Nc1nc2c(S(=O)(=O)c3cccc(Cl)c3)nnn2c2ccsc12 -7.09%
Cc1ccc(C(=O)NCC(c2cccs2)S(=O)(=O)c2ccccc2)cc1C (stereo not drawn) -1.75%
CC(C)CCNC(=O)c1ccc2nc(CCc3ccccc3)oc2c1 -8.56%
CC(C)c1ccc(S(=O)(=O)N2CCN(CC(=O)Nc3ccccc3C(F)(F)F)CC2)cc1 -8.69%
CCCCC(CC)CNC(=O)CCCCn1c(=O)[nH]c2ccsc2c1=O (stereo not drawn) -2.51%
COC(=O)c1sc(N2C(=O)c3oc4ccc(C)cc4c(=O)c3C2c2ccc(O)c(OC)c2)nc1C (stereo not drawn) 6.56%
CCOC(=O)c1c(C)oc2nc(C)nc(NCCc3ccc(OC)c(OC)c3)c12 4.89%
COC(=O)c1ccc(C(=O)OC)c(NC(=O)c2c(-c3ccccc3)noc2C)c1 -14%
COc1ccc(CCNc2nc(SCc3ccccc3F)nc3ccccc23)cc1OC -13.9%
CCc1ccc(NC(=O)C2CCCN2S(=O)(=O)c2ccc3nc(-c4ccccc4)[nH]c3c2)cc1 (stereo not drawn) -21.6%
Cc1ccccc1NC(=O)CC1NCCNC1=O (stereo not drawn) 5.09%
C=CCc1ccccc1OCc1nc2ccc(C)cc2[nH]1 -18.5%
Cn1c(=O)n(CC(=O)O)c(=O)c2c1nc1n2CCCN1c1ccc(Cl)cc1 2.53%
CCOC(=O)c1c(NC(=O)CSc2nc(-c3ccc(OC)cc3)cc(C(F)(F)F)n2)sc(C)c1C 2.29%
CCN(CC)S(=O)(=O)c1ccc2c(c1)c(=O)c(C(=O)NCCc1ccccc1)cn2C -13.3%
COc1ccc(C2CC(=O)c3cnc4c(-c5ccc(F)cc5)c(C)nn4c3C2)cc1OC (stereo not drawn) -1.75%
Cc1ccc(CNC(=O)Cn2nc(N3CCN(c4ccccc4)CC3)ccc2=O)cc1 6.94%
Cc1cccc(N2CCN(C(=O)c3cnn(-c4ccc(F)cc4F)c3C3CCN(C(=O)OC(C)(C)C)CC3)CC2)c1C 0.561%
CCOc1ccc(NC(=O)CC2C(=O)N(c3ccccc3)C(=O)N2C2CCCC2)cc1 (stereo not drawn) -1.39%
Cc1ccc(NC(=O)CSc2nc3ccccc3c(=O)n2CCC(=O)NC2CCCCC2)cc1C -1.66%
COc1ccc(-n2c(SCC(=O)NCc3ccco3)nc3c([nH]c4ccccc43)c2=O)cc1 -7.16%
CCOc1ccccc1NC(=O)c1cc2cc3cc(C)ccc3nc2s1 3.92%
CCOC(=O)c1cc2c(=O)n3ccccc3nc2n(Cc2ccco2)c1=NC(=O)c1cccc(C)c1 -1.06%
CCCn1c2ccccc2c2cnn(CC(=O)N(CC)c3cc(C)ccc3C)c(=O)c21 -1.91%
Cc1ccc2oc(=O)c3cnn(CC(=O)N4CCN(c5ccccc5F)CC4)c3c2c1 1.47%
Cc1ccc(C2C=C(c3ccccc3)Nc3nc(NS(=O)(=O)c4ccc(C)cc4)nn32)cc1 (stereo not drawn) -2.23%
Cc1cccc(N2CCN(C(=O)C3CCN(S(=O)(=O)c4c(C)noc4/C=C/c4ccccc4F)CC3)CC2C)c1 (stereo not drawn) -5.34%
Cc1ccc(NC(=O)Nc2cn(C)c(=O)c3ccccc23)c(Cl)c1 -0.829%
Cc1cc(=O)n(Cc2ccccc2)c2c1c(C)nn2-c1ccccc1 -0.662%
CCc1ccccc1NC(=O)c1ccc(Cn2nc(N3CCN(c4ccccc4)CC3)ccc2=O)o1 -3.69%
Cc1nc2c3ccccc3nc(NNC(=O)CCC(=O)N3CCN(c4cc(Cl)ccc4C)CC3)n2n1 1.64%
COc1cccc(NC(=O)c2sc3nc(C)c(C(=O)Nc4ccc(C)cc4C)c(-c4ccco4)c3c2N)c1 -15.4%
COc1ccc(OCC(=O)Nc2cccc(C(=O)OCc3cc(=O)n4nc(C)sc4n3)c2)cc1 17%
CNC(=O)CCCN1C(=O)CCn2nc(-c3cn(C)c4ccccc34)cc21 -0.23%
COCc1cc(C)nc2sc(C(=O)Nc3ccc(C(C)=O)cc3)c(N)c12 -9.37%
CCC(=O)N1CCc2cc(CNS(=O)(=O)c3ccc(C(C)C)cc3)ccc21 9.97%
CCOC(=O)c1c(NC(=O)/C=C/c2ccc(OCC)cc2)sc(C(C)=O)c1C 1%
Cc1nn(-c2ccccc2)c2sc(C(=O)Nc3cccc(Cl)c3)cc12 -8.02%
COc1cc2nc(NCCc3ccccc3)n3nc(-c4cccnc4)nc3c2cc1OC -0.332%
COC(=O)c1ccc2c(=O)n(CCCCCC(=O)N3CCN(c4cc(C)ccc4C)CC3)c(=O)[nH]c2c1 -27.7%
Cc1ccc(C)c(N2CCN(C(=O)CCS(=O)(=O)c3cc(Br)cc4c3N(C(=O)C3CC3)CC4)CC2)c1 0.0604%
COc1cc(NC(=O)CCc2c(C)nc3c(-c4ccc(F)cc4)c(C)nn3c2C)cc(OC)c1OC 1.8%
COc1ccc(CNC(=O)C(Cc2ccccc2)NS(=O)(=O)c2ccc3c(c2)CCN3C(C)=O)cc1 (stereo not drawn) -1.05%
CCCSc1ncc(Cl)c(C(=O)N2CCN(c3cccc(Cl)c3)CC2)n1 0.16%
CCOc1ccc(NC(=O)CC2C(=O)N(c3ccc(OC)cc3)C(=O)N2C2CCCCC2)cc1 (stereo not drawn) -18.1%
CCc1ccc2occ(CC(=O)Nc3ccc(OC)c(Cl)c3)c2c1 3.19%
Cc1nc(SCC(=O)Nc2ccc(C)c(Cl)c2)cc(-c2ccccc2)n1 0.444%
CCOc1ccc(C(=O)Oc2c(Sc3ccccc3)c(C)nn2C(C)(C)C)cc1OCC 0.36%
COc1ccc(CN(Cc2ccco2)C(=O)COc2ccccc2OC)cc1 3.82%
CC(=O)c1ccc(NC(=O)Nc2sc3nc4n(c(=O)c3c2C)CCC(C)CC4)cc1 (stereo not drawn) 0.468%
CCc1ccccc1-n1cnc2cc(C(=O)NC3CCCCCC3)ccc21 -5.13%
O=C(Nc1ccccc1Cl)[C@H](CSCc1ccccc1)N1Cc2ccccc2C1=O -11.8%
COc1ccccc1N1CCN(S(=O)(=O)c2ccc(F)c(C(=O)Nc3ccc(Cl)cc3C(F)(F)F)c2)CC1 1.25%
CC(C)c1ccc(CNC(=O)c2ccc(N3CCCC3)c(NC(=O)NCc3ccccc3)c2)cc1 0%
O=C(c1ccc2c(c1)CCN2S(=O)(=O)c1ccccc1)N1CCN(c2ccccc2F)CC1 -1.95%
CSc1ccc(-c2nc3cccc(C)n3c2Nc2ccc3c(c2)OCO3)cc1 10.7%
O=C(CN1C(=O)CSc2ccc(S(=O)(=O)N3CCCC3)cc21)NCc1ccccc1Cl 0.556%
CC(=O)N1CCCc2cc(S(=O)(=O)N3CCCC(C(=O)NC(C)C)C3)ccc21 (stereo not drawn) -1.07%
Cc1ccc(OCC(=O)Nc2c(C(=O)c3ccc(Cl)cc3)oc3ccccc23)cc1C 9.25%
CCOc1ccc(C2c3c(oc4ccc(C)cc4c3=O)C(=O)N2CCCN(C)C)cc1OC (stereo not drawn) -11.1%
Cc1cc(-c2ccc(S(=O)(=O)Nc3ccc(Cl)cc3)cc2)on1 -7.38%
CC(C)Oc1ccc(CNC(=O)c2sc3ncccc3c2-n2cccc2)cc1 -8.44%
COc1ccc(-n2nc(C(=O)Nc3ccc(C(C)=O)cc3)nc2-c2ccccc2)cc1 -0.0178%
COc1ccc(-c2nnc(SCCOc3ccccc3C)o2)cc1OC 4.93%
Cc1cn(C)c(CC(=O)Nc2ccc(F)cc2Cl)c1C(=O)O -0.837%
O=S(=O)(c1ccc(Cl)cc1)c1nc(-c2cccs2)oc1SCc1ccccc1F -9.96%
Cc1cc(C)cc(OCCSc2nc3ccc(NC(=O)COc4ccccc4)cc3s2)c1 0.52%
Cc1ccc(OCC(=O)Nc2nonc2-c2ccc(Br)cc2)cc1C -0.155%
CCOC(=O)C(CC)N1CCN(Cc2ccc(F)cc2)C(=O)C1=O (stereo not drawn) 0%
COc1ccc(-c2ccc(NS(=O)(=O)c3cc(C)c(C)cc3C)cc2)nn1 2.87%
O=C(Nc1nc2c(F)cccc2s1)c1ccc(S(=O)(=O)N2CCCc3ccccc32)cc1 4.01%
CCn1nc(C)c2c(-c3ccccc3)cc(=O)n(C(C)C(=O)Nc3cc(C)ccc3C)c21 (stereo not drawn) -11.9%
CCc1ccc(NC(=O)Cn2nc(SC)c(S(=O)(=O)c3ccc(OC)cc3)c2N)cc1 -22.2%
CCOC(=O)c1c(NC(=O)C2c3ccccc3Oc3ccccc32)sc2c1CCC(CC)C2 (stereo not drawn) 1.22%
Clc1ccc(CCNC(c2ccc(Cl)cc2)c2nnc(-c3ccccc3)o2)cc1 (stereo not drawn) -0.495%
CCc1ccc(NC(=O)Cn2c(=O)n(CCCC(=O)NCc3ccc4c(c3)OCO4)c(=O)c3ccccc32)cc1 -23.1%
CCS(=O)(=O)NCC(c1ccco1)N1CCN(c2ccc(F)cc2)CC1 (stereo not drawn) 0.931%
CC(=O)C1=C(c2cccc([N+](=O)[O-])c2)N(C(C)=O)n2c(nnc2-c2ccc(C)cc2)S1 0.322%
CCOC(=O)c1c(S(=O)(=O)N2CCCC(C(=O)N3CCN(c4cc(C)ccc4C)CC3)C2)c(C)n(C)c1C (stereo not drawn) 7.19%
Cc1nn2c(C)c(C(=O)N3CCN(c4ccc(Cl)cc4)CC3)cnc2c1-c1ccc(F)cc1 -2.35%
COc1cc2c(cc1OC)n(CC(=O)c1ccc(C)cc1C)c(=O)n1nc(CCn3nc(C)cc3C)nc21 -2.48%
O=S(=O)(c1ccc(-c2cnc(C3CC3)o2)cc1)N1CCN(c2ccccc2F)CC1 13.3%
O=C(NCCCN1CCN(c2cccc(Cl)c2)CC1)c1ccc2nc(Cc3ccccc3)oc2c1 -0.684%
Cc1cccc(Nc2sc(C(=O)c3ccc(Cl)cc3)c(N)c2C(N)=O)c1 1.88%
COc1ccc(NC(=O)c2cc(-c3ccccc3F)no2)cc1 10.4%
COc1cccc(CNC(=O)Cn2nc(C)c3sc4ccccc4c3c2=O)c1OC -0.334%
C=Cc1ccc(Cn2c(C)c(CNCCc3ccc(OCC)cc3)c(C(=O)O)c2C)cc1 -0.747%
Cc1cccc(C)c1OCC(=O)N(Cc1ccco1)Cc1ccco1 -2.7%
Cc1ccnc(NS(=O)(=O)c2ccc(NC(=O)c3ccc(C)c(C)c3)cc2)n1 8.08%
Cc1ccc2c(=O)cc(CSc3ncn[nH]3)[nH]c2c1C 6.56%
CCOC(=O)c1c(C)[nH]c(C)c1S(=O)(=O)N1CCC(C(=O)N2CCN(c3ccc(F)cc3)CC2)CC1 1.32%
CCn1cc(C(=O)N2CCN(c3cccc(Cl)c3)CC2)c(=O)c2cc(S(=O)(=O)N3CCC(C)CC3)ccc21 0.6%
